From PubChem BioAssay AID488969 (Vanderbilt High Throughput Screening Facility, 2010)
Over roughly 110,000 compounds, “z-score” has its median near -0.1; the highest 2% begin near 2. Some of the results follow.

target: Metabotropic glutamate receptor 8 (Rattus norvegicus) (UniProt P70579); assay: rat mGluR8 modulators via GIRK flux, primary screen, cell-based, thallium flux, HTS (AID 488969); conditions: HEK293 rat mGluR8, GIRK (G protein-gated inwardly rectifying potassium channel) thallium flux, FluoZin2; at 10 µM; stronger effect = higher value; submaximal glutamate (EC20) added with thallium
UniProt P70579, sequence (P70579 whole entry, looked up): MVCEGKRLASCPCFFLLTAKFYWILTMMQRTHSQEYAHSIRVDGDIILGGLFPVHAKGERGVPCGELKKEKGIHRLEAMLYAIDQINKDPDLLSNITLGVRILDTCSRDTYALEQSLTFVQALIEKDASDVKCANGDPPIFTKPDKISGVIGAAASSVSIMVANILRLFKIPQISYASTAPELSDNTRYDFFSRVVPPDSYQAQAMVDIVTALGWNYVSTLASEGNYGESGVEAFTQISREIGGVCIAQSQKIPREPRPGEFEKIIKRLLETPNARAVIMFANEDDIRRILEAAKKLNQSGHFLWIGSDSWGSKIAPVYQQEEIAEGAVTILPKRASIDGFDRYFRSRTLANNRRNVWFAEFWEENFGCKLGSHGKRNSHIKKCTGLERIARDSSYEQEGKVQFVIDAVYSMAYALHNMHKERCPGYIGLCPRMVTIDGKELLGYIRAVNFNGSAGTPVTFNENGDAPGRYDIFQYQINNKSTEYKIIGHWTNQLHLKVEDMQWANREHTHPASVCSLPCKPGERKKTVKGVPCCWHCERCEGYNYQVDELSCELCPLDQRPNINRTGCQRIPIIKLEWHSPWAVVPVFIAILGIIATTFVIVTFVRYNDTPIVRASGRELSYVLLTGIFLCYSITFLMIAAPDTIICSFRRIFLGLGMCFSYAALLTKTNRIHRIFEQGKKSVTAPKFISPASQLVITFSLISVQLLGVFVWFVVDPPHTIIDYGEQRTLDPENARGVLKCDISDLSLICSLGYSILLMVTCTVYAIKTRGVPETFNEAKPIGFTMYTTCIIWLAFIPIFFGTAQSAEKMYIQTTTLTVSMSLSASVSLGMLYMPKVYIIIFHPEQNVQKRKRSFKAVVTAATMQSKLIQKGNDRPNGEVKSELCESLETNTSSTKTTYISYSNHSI

SMILES	z-score
CCOC(=O)N1CCN(C(=O)c2cn(C)c(=O)c3c2c2ccccc2n3C)CC1	-0.908
COC(=O)/C(N=Nc1cccc(C(F)(F)F)c1)=C(\C)O	-0.101
CC(=O)C1C(c2ccc3ncccc3c2)NC(=O)NC1(O)C(F)(F)F (stereo not drawn)	0.355
C=CCn1c(=O)c(C(=O)NCCN(CC)CC)c(O)c2ccccc21	-0.224
O=c1c2[nH]c3cccc(Cl)c3c2ncn1CCN1CCCCC1	-0.00909
CC(C)(C)NCCOc1ccc(Br)cc1	-0.0295
CC1CCCN(CCCOc2ccc([N+](=O)[O-])cc2)C1 (stereo not drawn)	0.0526
Cc1cc(OCCCCNC(C)C)cc(C(C)C)c1	0.32
Cc1c(C(=O)Nc2ccc(F)cc2)c2ccccn2c1CCc1ccncc1	-0.369
C/C(=N\NC(=O)Cc1c(C)[nH][nH]c1=O)c1ccc2ccccc2c1	-0.0708
COc1ccccc1S(=O)(=O)Cc1ccc(C(=O)NCCN(C)C)o1	0.66
COC(=O)C1(C)NC(c2ccc(O)cc2)C2C(=O)N(c3ccc4c(c3)OCCO4)C(=O)C21 (stereo not drawn)	-0.191
Cc1nn(Cc2cccc(C(=O)Nc3ccn(Cc4ccccc4F)n3)c2)c(C)c1[N+](=O)[O-]	-0.0852
C/C(CC(=O)Nc1ccccn1)=N\NC(=O)C(=O)Nc1ccccc1C	0.805
CC1CCN(CC(=O)c2c[nH]c3ccccc23)CC1	-0.0411
COc1ccc(-c2cc(C(=O)Nc3ccc(Cl)cc3Cl)c3ccccc3n2)cc1OC	-0.487
COc1ccc(N=C2SC(CC(=O)Nc3ccccc3)C(=O)N2Cc2ccco2)cc1 (stereo not drawn)	-0.00683
O=c1sc(/C=N/Nc2ccccc2)c(Cl)n1Cc1ccccc1	-0.641
NC(=O)CNC1CC(=O)N(CCc2ccccc2)C1=O (stereo not drawn)	-0.236
CCOc1ccc(C(C(=O)NC2CCCC2)N(Cc2ccccc2)C(=O)c2nsc(Cl)c2Cl)cc1 (stereo not drawn)	-0.145
CN(C)CCCN1C(=O)C(=O)/C(=C(/O)c2ccc3c(c2)OCO3)C1c1ccccn1 (stereo not drawn)	0.413
CC1=C(C(=O)OCC(C)C)C(c2cccs2)NC(=S)N1 (stereo not drawn)	-0.0977

SMILES	z-score
CCOc1ccc(C2C(C(=O)c3ccco3)=C(O)C(=O)N2Cc2cccnc2)cc1 (stereo not drawn)	-0.347
O=c1c2ccccc2nnn1CSc1nc2cc(Cl)ccc2c(=O)n1Cc1ccco1	0.441
Cc1ccc(S(=O)(=O)NC(=O)c2cccn2C)cc1	0.161
CC(C)C(NC(=S)NCc1ccccc1)C(=O)O (stereo not drawn)	0.259
CCOC(=O)C1=C(C)N=c2s/c(=C\c3ccc(OC(C)=O)c(OCC)c3)c(=O)n2C1/C=C/c1ccccc1 (stereo not drawn)	-0.293
CCOC(=O)C1C(c2cc(OC)c(O)c(OC)c2)NC(=S)NC1(O)C(F)(F)F (stereo not drawn)	0.174
Cc1ccc(SCC(=O)Nc2cccc(C(=O)NC(C)(C)C)c2)cc1	-0.323
Cc1cc(S(=O)(=O)Nc2cccnc2)c(C)s1	-0.886
CCOc1ccc(C(Nc2ccc(C)cc2)P2(=O)OCCCO2)cc1 (stereo not drawn)	-0.0948
Cc1ccc(OCc2nnc(SCC(=O)c3ccccc3)n2-c2ccccc2)cc1	-0.337
COc1ccc(CCNC(=O)CSc2nnc(Cn3c(=O)sc4ccccc43)n2C)cc1OC	-0.436
O=C(O)CCCCCNS(=O)(=O)c1cccc2nsnc12	-0.331
COc1cc2c(cc1OC)CN(Cc1cc(=O)oc3cc(C)c(Cl)cc13)CC2	-0.123
Cc1ccc(S(=O)(=O)NNC(=S)Nc2ccccc2)cc1	-0.201
COc1ccccc1C(=O)Nc1nc(-c2ccc(S(=O)(=O)N3CCOCC3)cc2)cs1	-0.185
Clc1ccccc1Cn1nnc2c(N3CCCC3)ncnc21	-0.729
Cn1nnnc1SCc1ccc(C(=O)Nc2nccs2)cc1	0.138
Cc1cc(C)nc(/N=C2\NC(=O)CC(C(=O)O)N2CCc2c[nH]c3ccccc23)n1 (stereo not drawn)	0.285
COc1nc(-c2ccccc2)cc(-c2ccccc2)n1	2.45
COC(=O)Cc1c(O)ccn(Cc2ccccc2OC)c1=O	-0.109
CCN(CC)CCCN1C(=O)C(=O)/C(=C(/O)c2cnn(-c3ccccc3)c2C)C1c1ccncc1 (stereo not drawn)	-0.137
Cn1cc(CNC(=O)c2sc3cccc(Cl)c3c2Cl)cn1	-0.31

SMILES	z-score
COC(=O)/C(=C\c1c[nH]c2ccccc12)NC(C)=O	0.206
CCOC(=O)C(C)n1cnc2c1c(=O)[nH]c(=O)n2C (stereo not drawn)	-0.374
O=C(N/N=C/C=C/c1ccccc1)c1cccc(Br)c1	0.831
Cc1cc(NS(=O)(=O)c2ccc(NC(=O)CCCC(=O)O)cc2)nc(C)n1	0.622
CC1CC(=O)N(c2ccc(NCc3ccccc3Cl)c([N+](=O)[O-])c2)C1=O (stereo not drawn)	-0.202
CCCC(=O)Nc1ccc(Nc2ccccc2)cc1	0.0261
O=C1CN(C(=O)CN2CCCC2)C(c2ccccc2)c2cc(Br)ccc2N1 (stereo not drawn)	0.587
CN1C(=O)C(O)(c2sc(N)nc2-c2ccccc2)c2ccccc21 (stereo not drawn)	-0.46
Cc1ccc(C)c(SCC(=O)NCc2ccco2)c1	-0.0688
CCCOc1cccc(NC(=O)c2cc(C)oc2C)c1	0.00457
CCc1nc2sc(C)c(C)c2c(=O)n1CCO	-0.208
C=CCCC(=O)Nc1nc(C)c(-c2csc(Nc3cccc(OC)c3)n2)s1	-0.207
O=C(c1ccco1)[C@@H]1[C@@H]2C(=O)N(c3ccc(F)cc3)C(=O)[C@@H]2[C@H]2C=Cc3ccccc3N21	0.171
CNC(=O)C1CCC(=O)N1Cc1ccc(C)cc1 (stereo not drawn)	-0.465
CC(C)N(N=Nc1ccc([N+](=O)[O-])cc1)C(C)C	-0.283
CCc1ccc2[nH]c(=O)c(CN(CCCN3CCOCC3)C(=O)Nc3ccc(Cl)cc3)cc2c1	0.12
CCOC(=O)N1CCN(CC(O)COC(CC)c2ccccc2)CC1 (stereo not drawn)	0.371
Cc1csc(SCC(=O)N2CCN(S(=O)(=O)c3ccc(Cl)cc3)CC2)n1	0.756
O=C(NC(Cc1ccccc1)c1nc2ccccc2[nH]1)c1ccc(Cl)c([N+](=O)[O-])c1 (stereo not drawn)	-0.0614
C[C@]1(C(=O)O)Cc2oncc2C[C@@H]1C(=O)O	0.0908
Cc1nnc(-c2cccc(Br)c2)c2cn(-c3ccccc3)nc12	-0.29
O=C(NCc1ccco1)C1CCCN(S(=O)(=O)c2ccccc2)C1 (stereo not drawn)	-0.248

SMILES	z-score
Cc1ccc(S(=O)(=O)N(CC(=O)Nc2cccc([N+](=O)[O-])c2)Cc2ccc(Cl)cc2)cc1	0.191
CCOC(=O)C1C(=O)OC2(CCOC(C)(C)C2)C1C(=O)OCC (stereo not drawn)	-0.323
Cc1cccc(N(Cc2nnc3n2CCCCC3)C(=O)Nc2ccccc2)c1	-0.175
COc1cccc(NC(=O)CSc2nc3ccccc3c(=O)n2CCCC(=O)N2CCCC2)c1	-0.913
Cn1c(=O)[nH]c(=O)c2c1nc(Br)n2CCC(=O)c1ccccc1	1.07
CCc1c(C)n([O-])c2c([n+]1=O)CCC2	0.305
COc1cc(NS(=O)(=O)c2ccc(N/C=C\C(=O)c3ccc(C)cc3)cc2)nc(OC)n1	-0.0212
COc1ccc(-n2c(SCc3ccc([N+](=O)[O-])cc3)nnc2-c2ccccc2)cc1	-0.277
CC(=O)Nc1ccc(C(=O)CSc2nc3ccccc3n2CC(=O)N2CCCC2)cc1	0.664
COC(=O)c1c(NC(=O)c2ccnn2C)sc(C)c1C	0.471
CN(CC(=O)NC1CCCCC1)S(=O)(=O)c1ccc(Cl)cc1	-0.182
CCOc1cc(NC(=S)NCCCOC)c(OCC)cc1NC(=O)c1ccco1	-0.189
O=c1c2ccccc2nc2ccc(NCc3ccco3)nn12	-0.209
Cn1c(-c2ccc(CN3CCCCC3)o2)nc2ccccc21	-0.0532
CNc1ccc(Br)cc(C(=O)/C=C/c2ccc3c(c2)OCO3)c1=O	0.111
CCOc1ccc(C2CC(=O)NC3=C2C(=O)CCC3)cc1Cl (stereo not drawn)	0.397
Cc1c(C(=O)NCc2ccc3c(c2)OCO3)oc2ccc(Br)cc12	-0.297
COc1cc(/C=C(\C#N)C(=O)N2CCOCC2)cc(Br)c1O	-0.0917
c1ccc(-c2nc(N3CCCCC3)nc3ccccc23)cc1	0.166
c1ccc(CSc2nnc(-c3c[nH]c4ccccc34)o2)cc1	0.0482
COc1ccc(/C=C2\OC(=S)N(C)C2=O)cc1	-0.218
COc1cccc(CNCC(=O)N2C(C)CCCC2C)c1 (stereo not drawn)	0.0289

SMILES	z-score
Cc1ccc(N2CC(C(=O)Nc3ccc(N(C)C)cc3)CC2=O)cc1C (stereo not drawn)	-0.467
COCc1nnc(NC(=O)c2ccc(Cl)cc2[N+](=O)[O-])s1	-0.144
N#Cc1c(-c2ccc(F)cc2)noc1N	-0.0626
Clc1ccc(-n2c(SC/C=C/c3ccccc3)nnc2-c2cccnc2)cc1	0.14
CCCCC(=O)Nc1ccc(C(=O)NNC(=O)CCc2ccccc2)cc1	-0.0764
CCN(CCCNC(=O)C1CCC(=O)N1C1CCCC1)c1cccc(C)c1 (stereo not drawn)	0.183
Cc1cc(C)cc(OCC(=O)Nc2cccc(C(=O)O)c2)c1	-1.19
COc1cc(C2CC(=O)c3c([nH]c(C(=O)OCCOC(C)C)c3C)C2)cc(OC)c1OC (stereo not drawn)	0.356
C/C(=N\NC(=O)COc1ccc(C(C)(C)C)cc1)c1cc2ccccc2o1	-0.0651
COc1ccc(C(C(=O)NC2CCCCC2)N(C(=O)CCl)c2cccc(Cl)c2)cc1 (stereo not drawn)	-0.118
COc1ccc(CC(=O)Nc2ccc3c(c2)CCC3)cc1OC	-0.0198
CN(CC(=O)Nc1ccc(Cl)c(Cl)c1)C(=O)C12CC3CC(CC(C3)C1)C2	-0.069
COC(=O)c1ccc(OCCN2C3=NCCN3c3ccccc32)cc1	0.981
CCCCOC(=O)Nc1cc(C)c(Cl)cc1OC	-0.541
CC(C)NC(=O)/C(=C/c1ccco1)c1ccccc1	2.43
C=CCNC(=O)NC(=O)COC(=O)c1ccccc1Sc1ccc(C(F)(F)F)cc1[N+](=O)[O-]	-0.423
Cc1ccccc1N(C(=O)Cc1cccs1)C(C(=O)NCC1CCCO1)c1cccnc1 (stereo not drawn)	-0.494
CC(C)CCNC(=O)Cn1c(=O)oc2cc(S(=O)(=O)N3CCc4ccccc43)ccc21	-0.186
COc1ccc(Oc2c(Cl)cnn(-c3ccc(Cl)c(Cl)c3)c2=O)cc1	-0.379
CCS(CC)=NS(=O)(=O)c1ccc(NC(C)=O)cc1	-0.155
